Read counts are not given, so values of variants with three or more changes are uncertain.
B1: CPEB3 Ribozyme (parent)
chain: UAACAGGGGGCCACAGCAGAAGCGUUCACGUCGCAGCCCCUGUCAGAUUCUGGUGAAUCUGCGAAUUCUGCUGUAUAUCUC

Variants of: B1
Assay: self-cleavage, relative activity (ratio to wild type); higher = more cleavage; in vitro, sequencing
Method in brief: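 Libraries of CPEB3 self-cleaving ribozyme mutants came from rounds of error-prone PCR and carried barcodes, which DNA sequencing matched to variants. In vitro transcription used T7 RNA polymerase at 37°C for 5 hours, with a further 15 min in DNase I before EDTA stopped the reaction; the ribozymes cleaved during both steps. The RNA was reverse transcribed with template switching and sequenced on Illumina. Relative activity is the cleaved/total read fraction of a variant divided by that of the unmutated ribozyme, averaged over three batches with at least 5 reads.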

Row | Variant | self-cleavage
1 | UAGCAGGGGGUCACAGCAGAAGCGUUCACGCCGCAGCCCCUGUCAGAUUCUGGUGAAUCUGCGAAUUCUGCUGUAUAUCUC [A3G C11U U31C] | 0.54
2 | UAGCAGGGGGCUACAGCAGAAGCGUUCACGUCGCAGCCCCCGCCAGAUUCUGGUGAAUCUGCGAAUUCUGCUGUAUAUCUC [A3G C12U U41C U43C] | 0.5
3 | UAGCAGGGGGCCACAGCAGAAGCGUUCACGUCGCAGCUCCUGUCGGAUCCUGGUGAAUCUGCGAAUCCUGCUGUAUCUCUC [A3G C38U A45G U49C U67C A77C] | 0.12
4 | UAGCAGGGGGUCACAGCAGAAGCGUUCUCGUCGCAGCCCCUGUCUGAUUCUGGUGAAUCUGCGAAUUCUGCUCUAUUUCUC [A3G C11U A28U A45U G73C A77U] | 0.46
5 | UAGCAGGGGGCUACAGCAGAAGCGUCCACGUUGCAGCCCCUGUCAGAUUCUGGUGAAUCUGCGAAUUCUGUUGUAUAUCGC [A3G C12U U26C C32U C71U U80G] | 0.07
6 | UAGCAGGGGGCCACAGCAGAAGCGUUCAUGUCGCAGCCCCUGCCAGAUUCUGGGGAAUCUGCGAUUUCUGCUGUGUAUCAC [A3G C29U U43C U54G A65U A75G U80A] | 0.05
7 | UAGCAGGGGGCUACAGCAGAAGCGUUCACGUCGCUGCCCCUGUCAGAUUCUGGUGACUCUGCGAAUUCUGCUGUAUAUCUC [A3G C12U A35U A57C] | 0.26
8 | UAGCAGGGGGCCAAAGCAGGAGCGUUCACGCCGCAGCCCCUGUCAGAUUCUGGUGAAUCUGCGGAUUCUGCUGUAUAUCUC [A3G C14A A20G U31C A64G] | 0.12
9 | UAGCAGGGGGCCAUAGCUGAAGCGCUCACGUCGCAGCCCCUGUCUGAUUCUGGUGAAUCUGCGAAUUCUGCUGCAUAUCCC [A3G C14U A18U U25C A45U U74C U80C] | 0.06
10 | UAGCAGGGGGCCACAGCAGAAGCGUUCACGUCGCAGCUCCUGUCAGAUUCUGGUGGAUCUGCGAAUUCUGCUGCAAAUCUC [A3G C38U A56G U74C U76A] | 0.44
11 | UAGCAGGGGGUCACAGCAGAAGCGUUCACGUCGCCGCCCCUGUCAGAUUCUGGUGAAUCUGCGAAUUCUGCUCUAUUUCUC [A3G C11U A35C G73C A77U] | 0.97
12 | UAGCAGGGGGCUACAGCAGUAGCGUUCACGUCGCAGCCCCUGUCAGAUCCUGGUGAAUCUGCGAAUUCCGCUGUAUAUCCC [A3G C12U A20U U49C U69C U80C] | 0
13 | UAGCAGGGGGCCACAGCAGAAGGGUUCACGUCGCAGCCCCUGUCAGAUUCUGGUGAAUCUGCGAAUUCUGCCGUAUAUCUC [A3G C23G U72C] | 0.15
14 | UAGCAGGGGGCGACAGCAGAAGCGUUCACGUCGCGGCCCCUGCCAGAUUCUGGUGAAUCUGCGGAUUCUGCUGUAUAUCUC [A3G C12G A35G U43C A64G] | 0.05
15 | UAGCAGGGGGCCACAGCAGAAGCGUUCACGUUGCAGCCCCUGUCAGAUUCUGGUGAAUCUGCGAACUCUGCUGUAUAUCCC [A3G C32U U66C U80C] | 0.32
16 | UAGCAGGGGGCCACAGCAGAAGGGUCCACGUCGCAGCCCCUGUCAGAUUCUGGUGAAUCUGCGAAUUCUGCUGUAUAGCUC [A3G C23G U26C U78G] | 0.06
17 | UAGCAGGGGGCUACAGCAGAAGCGUUCACGUCGCAGCCCCUGUCAGAUUCUGGUGAAUCUGCGAAUUCUGCUGUACAUCUC [A3G C12U U76C] | 1.14

Row | Variant | self-cleavage
18 | UAGCAGGGGGCCACAGCAGAAGCGUUCACGUCGUAGCCCCUGGCAGAUUCUGGUGAAUCUGCGAAUUCUGCUGUAUAUCUC [A3G C34U U43G] | 0.11
19 | UAGCAGGGGGCCACAGCAGAAGUGUUCACGUCGCAGCCCCUGUCAGAUUCUGGUGAAGCUGCGAAUUCUGCUGUAUAUCUC [A3G C23U U58G] | 0.12
20 | UAGCAGGGGGCCACAGCAGAAGCGUUCACGUCGCAGCUCCUGUCAGAUUCUGGUGAAUCUGCGAAUACUGCUGUAUAACUC [A3G C38U U67A U78A] | 0.47
21 | UAGCAGGGGGCCACAGCAGAAGCGUUCAGGUCGCAGCCCCUGUCAGAUUCCGGUGAAUCUGCGAAUUCUGCUGUAUAUCUC [A3G C29G U51C] | 0.14
22 | UAGCAGGGGGCCACAGCAGAAGGGUUCACGUCACAGCUCCUGCCAGAUUCUGGUGAAUCUGCGAAUUCUGCUGUACAUCUC [A3G C23G G33A C38U U43C U76C] | 0.11
23 | UAGCAGGGGGCCACAGCAGAAGCGUUCACGUCGGAGCCCCUGUCAGAUUCUGGUGGAUCUGCGAAUUCCGCUACAUAUCCC [A3G C34G A56G U69C G73A U74C U80C] | 0.05
24 | UAGCAGGGGGCCACAGGAGAAGCGCACACGUCGCAGCCCCUGUCAGAUUCCGGUGAAUCUGCGAAGUCUGCUGUAUAUCUC [A3G C17G U25C U26A U51C U66G] | 0.08
25 | UAGCAGGGGGCCAGAGCAGAAGCGUUCACGUCGCAGCCCCCGUCAGAUUCUGGUGAGUCUGCGAAUUCAGCUGUAUAUCUC [A3G C14G U41C A57G U69A] | 0.29
26 | UAGCAGGGGGCCACAGAAGAAGCGUUCACGUCGCAGCCCCUGUCAGGUUCAGGUGAACCUGCGAAUUCUGCUGUAUAUCUC [A3G C17A A47G U51A U58C] | 0.2
27 | UAGCAGGGGGCCAAAGCUGAAGCGCUCACGUCGCAGCCCCUGUCAGAUUCAGGUGAAUCUGCGAAUUCCGCUGUAUAUCUC [A3G C14A A18U U25C U51A U69C] | 0.06
28 | UAGCAGGGGGCAACAGCAGAAACGUUCACGUCGCAGCCCCUGUCAGAUUCUGGUGAAUCUGCGAAUUCUGCUGUAUAUCUC [A3G C12A G22A] | 0.4
29 | UAGCAGGGGGCCACAGCAGAAGCGUUCACGUCGCAGCUCCUGUCAGGUUCUGGUGAAUCUGCGAAUUCUGCUGUAUAUCUC [A3G C38U A47G] | 0.88
30 | UAGCAGGGGGCCAGAGCAGAAGCGUUCACGCCGCAGCCCCCGUCAGAUUCUGGUGAAUCUGCGAAUUCAGCUGUAUAUCUC [A3G C14G U31C U41C U69A] | 0.41
31 | UAGCAGGGGGCCACAGCAGAAGCGUUAACGUCGCGGCCCCUGUCAGAUUCUGGUGAAUCUGCGAAUACUGCUGUAUAUCUC [A3G C27A A35G U67A] | 0.39
32 | UAGCAGGGGGCCAUAACAGAAGCGUCCACGUCGCAGCCCCUGUCAGAUUCUGGUGAACCUGCGAAUUCUGCUGUAUACCCC [A3G C14U G16A U26C U58C U78C U80C] | 0.07
33 | UAGCAGGGGGCCACAGCAGAAGCGUUCACGUCGCAGCCACAGUCAGAUUCUGGUGGAUCUGCGAAUUCUGCUGUAUACCUC [A3G C39A U41A A56G U78C] | 0.32
34 | UAGCAGGGGGCAACAGCAGAAGCGUUCACGUCGCAGCCCCUGUCAGAUCCUGGUGAAUCUGCGAAUUCUGCUGUAUACCUC [A3G C12A U49C U78C] | 0.24
